Results taken from PubChem BioAssay AID1030 (National Center for Advancing Translational Sciences (NCATS), 2008).
Out of some 220,000 compounds screened, about 16,000 (7.3%) were called active. This list was built around the results that the source calls inconclusive (neither active nor inactive); the mix of calls is not that of the screen. The call rests on the fitted dose curve; in most records, active means well fitted inhibition curve with a large enough effect (not every such curve was filed as active); inconclusive means small, poorly fitted or top-dose-only effect, or another doubt; inactive means no such curve, though single readings can be large or run the other way. Potencies of inconclusive entries are doubtful fits and often do not repeat.

target: Aldehyde dehydrogenase 1A1 (Homo sapiens) (UniProt P00352); assay: qHTS Assay for Inhibitors of Aldehyde Dehydrogenase 1 (ALDH1A1); conditions: Purified ALDH1A1, NADH fluorescence, propionaldehyde substrate; series mostly up to 75.3 µM; activity, negative = inhibition: at the top concentration;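 on activity, negative = inhibition: plate controls were no enzyme wells and a reference inhibitor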
Sequence of UniProt P00352 (P00352 whole entry, looked up): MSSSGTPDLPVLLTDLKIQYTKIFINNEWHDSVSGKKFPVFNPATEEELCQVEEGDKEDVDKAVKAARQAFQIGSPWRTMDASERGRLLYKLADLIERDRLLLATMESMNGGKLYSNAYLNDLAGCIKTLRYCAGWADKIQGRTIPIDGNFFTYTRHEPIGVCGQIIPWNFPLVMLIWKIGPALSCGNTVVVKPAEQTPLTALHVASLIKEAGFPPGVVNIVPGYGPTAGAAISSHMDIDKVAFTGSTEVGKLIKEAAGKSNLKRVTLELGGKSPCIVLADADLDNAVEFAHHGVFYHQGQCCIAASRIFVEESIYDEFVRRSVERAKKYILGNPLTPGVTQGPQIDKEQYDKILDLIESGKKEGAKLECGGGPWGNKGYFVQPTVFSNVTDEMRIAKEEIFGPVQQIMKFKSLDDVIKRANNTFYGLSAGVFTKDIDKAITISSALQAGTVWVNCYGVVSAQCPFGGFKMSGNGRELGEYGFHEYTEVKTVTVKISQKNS
Potency means the concentration at half of the fitted maximal effect; tags describe the fitted curve by direction and shape.

Potency, inconclusive:
Cc1ccc(S(=O)(=O)Nc2ccc3[nH]c(=O)[nH]c3c2)c(C)c1 25.1 µM [inhibitor, partial curve]
Brc1ccc(CN2CCSCC2)cc1 39.8 µM [inhibitor, single point]
CN1CCN(Cc2nc3ccccc3c(=O)n2Cc2nc(-c3ccc4ccccc4c3)cs2)CC1 39.8 µM [inhibitor, single point]
Cc1nc2cc(-c3cccs3)nn2c(NCC(C)(C)CN(C)C)c1C 39.8 µM [inhibitor, single point]
Cc1ccccc1-c1nc(SCc2cccnc2)c2c(=O)n(C)c(=O)n(C)c2n1 0.398 µM [inhibitor, full curve]
Cc1c(SCCO)c(=O)[nH]c2cc3c(cc12)OCO3 28.2 µM [inhibitor, partial curve]
CC(C)c1csc(CN2CCN(Cc3ccccc3)C(CCO)C2)n1 (configuration not stated) 39.8 µM [inhibitor, single point]
COc1ccc(CCNC(=O)CCC(=O)Nc2nnc(C(C)C)s2)cc1OC 8.91 µM [inhibitor, full curve]
Cc1cc(C)cc(NC(=O)Cn2cnc3c(nnn3Cc3ccc(F)cc3)c2=O)c1 39.8 µM [inhibitor, single point]
CCOC(=O)C1Cc2c([nH]c3ccccc23)C(C)N1 (configuration not stated) 28.2 µM [inhibitor, partial curve]
N#Cc1cnn2c3c(cnc12)C(=O)N1CCc2ccccc2C1C3 (configuration not stated) 31.6 µM [inhibitor, partial curve]
CC(=C/c1ccccc1)/C=N/NC(=O)c1ccc2nc[nH]c2c1 39.8 µM [inhibitor, single point]
COc1ccc(C(=O)NC2CCCCCC2)cc1S(=O)(=O)N1CCCc2ccccc21 6.31 µM [inhibitor, partial curve]
O=C(CN(CCc1ccccc1)C(=O)CNS(=O)(=O)c1ccccc1)NCC1CCCO1 (configuration not stated) 39.8 µM [inhibitor, single point]
C[C@H](NC(=O)NCc1cccs1)C(=O)O 39.8 µM [inhibitor, single point]
CC(C)C(=O)c1cc2c(cc1NC(=O)c1cccs1)OCCO2 31.6 µM [inhibitor, single point]
N#CCN1CCN(CC(=O)Nc2ccc(OCc3ccccc3)cc2)CC1 39.8 µM [inhibitor, single point]
Cc1cc2cc(CNC(=O)C3CC3)ccc2n1C 39.8 µM [inhibitor, single point]
Cc1cc2oc(=O)cc(C)c2cc1NC(=O)CCl 12.6 µM [inhibitor, partial curve]
COc1ccc(NS(=O)(=O)c2ccc(C)c(NC(=O)NC3CCCCC3)c2)cc1 2.24 µM [inhibitor, full curve]
CCN(CC)c1ccc2c(Cl)cc(=O)oc2c1 14.1 µM [inhibitor, partial curve]
CCOc1ccc(NC(=O)c2sc(NC(C)=O)c(C(=O)OC)c2C)cc1 39.8 µM [inhibitor, single point]
COc1ccc(NC(=S)N(CCCN2CCCC2)Cc2cccn2Cc2ccc(Cl)cc2)cc1Cl 37.7 µM [inhibitor, single point]
CC(=O)N1CCC2(CC1)CCN(c1ccc(-c3ccccc3)cc1)CC2 25.1 µM [inhibitor, partial curve]
C/C(=N\NC(=O)CSCc1ccccc1Cl)c1cc(O)ccc1O 39.8 µM [inhibitor, single point]
O=S(=O)(/N=C(/Nc1ccc(Cl)cc1Cl)c1ccccc1)c1cccs1 25.1 µM [inhibitor, single point]
CN(C)S(=O)(=O)Oc1ccc(Cl)cc1C(=O)Nc1ccc(F)cc1F 20 µM [inhibitor, partial curve, poor fit]
CCOC(=O)c1ccc(-c2ccc(C3Nc4ccccc4C(=O)N3O)o2)cc1 (configuration not stated) 39.8 µM [inhibitor, single point]
CC1(C)CC(=O)C2=C(C1)N(CCN1CCOCC1)C1=C(C(=O)CC(C)(C)C1)C2c1cccc(F)c1 20 µM [inhibitor, partial curve]
CCS(=O)(=O)Nc1c(C(=O)O)[nH]c2ccccc12 31.6 µM [inhibitor, partial curve]
O=C(NCC1CCCO1)C(c1cccs1)N(C(=O)c1ccc(-c2ccccc2)[nH]1)C1CCCC1 (configuration not stated) 39.8 µM [inhibitor, partial curve, poor fit]
CCOc1ccccc1N1CCN(C(=O)COc2ccc3c(C)cc(=O)oc3c2)CC1 15.8 µM [inhibitor, partial curve]
COc1ccc(-c2cc(=O)c3ccccc3s2)cc1 20 µM [inhibitor, partial curve]
Cc1cccc(N2CCN(C(=S)Nc3ccc4nc(N5CCN(C)CC5)cc(C)c4c3)CC2)c1C 2.51 µM [inhibitor, full curve]
Cc1ccc(-c2cc(C(=O)n3cnc4ccccc43)c3ccccc3n2)cc1C 35.5 µM [inhibitor, single point]
O=C(Cn1cnc2c(nnn2Cc2ccc(Cl)cc2)c1=O)c1ccccc1 23.8 µM [inhibitor, single point]
COc1ccccc1-c1nnc(SCC(=O)Nc2nc(-c3ccccc3)cs2)n1C 8.91 µM [inhibitor, partial curve]
C(=NC12CN3CN(CN(C3)C1)C2)c1ccc2c(c1)OCO2 39.8 µM [inhibitor, single point]
COc1cc(/C=N/N2C(=O)CSC2=S)cc(Br)c1O 7.08 µM [inhibitor, partial curve]
Cc1cccc(NC(=S)N(CCCN2CCCC2)Cc2cccn2Cc2ccc(Cl)cc2)c1 39.8 µM [inhibitor, single point]
O=C(CSc1ncnc2c1nnn2Cc1ccccc1F)N1CCN(c2ccccc2)CC1 10 µM [inhibitor, partial curve]
O=C(CCC1CCCCC1)Nc1ccccc1-c1ccccc1 17.8 µM [inhibitor, partial curve]

Potency, active:
C=CCN1C(=O)/C(=C/C=C2/N(CC)c3ccc(S(=O)(=O)N(C)C)cc3N2CC)SC1=S 2.82 µM
CCCOC(=O)c1[nH]c2c(c1C)C(=O)CC(c1cc(OC)c(OC)c(OC)c1)C2 (configuration not stated) 0.355 µM
O=C(CSc1nnc(CNC(=O)c2ccccc2F)o1)Nc1ccc2c(c1)OCCO2 10 µM
C/C(=N\NC(=O)COc1ccccc1-c1ccccc1)c1ccccn1 2.51 µM
N#CCCS(=O)(=O)c1nnnn1-c1ccccc1 0.447 µM
Cc1ccc(OCC(=O)N(Cc2ccc(N(C)C)cc2)C2CCS(=O)(=O)C2)cc1 (configuration not stated) 17.8 µM
Cc1ccc(C(=O)CC2(O)C(=O)N(Cc3ccc4c(c3)OCO4)c3ccccc32)cc1 (configuration not stated) 1.41 µM
C/C(=N\S(=O)(=O)c1ccc(C)cc1)Nc1cc(C(C)C)c(O)cc1C 2.82 µM
COc1cccc(/C=C2\SC(=S)N(CC3CCCO3)C2=O)c1 (configuration not stated) 3.16 µM
COc1ccc(C(=O)Oc2ccc(C(=S)N3CCOCC3)cc2)cc1 7.08 µM

activity, negative = inhibition, inactive:
Cc1ccc2oc(C(Cl)(Cl)Cl)cc(=O)c2c1 -3.82%
COCCNS(=O)(=O)c1ccc(F)c(OC)c1 5.3%
NC(=O)C(CC(=O)O)NC(=O)[C@@H]1CCOc2c(I)cc([N+](=O)[O-])cc2C(=O)N[C@@H](CO)C(=O)N[C@@H](Cc2ccc(O)cc2)C(=O)N1 (some centres not stated) -6.65%
COc1ccccc1NC(=S)NCC1CCCO1 (configuration not stated) 3.62%
O=C(CN1CCOCC1)Nc1scc(-c2ccccc2)c1C(=O)N1CCOCC1 -27%
O=C(Nc1ccc2c(c1)OCO2)c1cncc(Br)c1 -2.1%
Cc1ccc(C2(C)NC(=O)N(CC(=O)Nc3cc(S(=O)(=O)N4CCOCC4)ccc3C)C2=O)cc1 (configuration not stated) 1.98%
CCc1ccc(OCc2ccccc2C(=O)Nc2ccc3nc(C)cc(N)c3c2)cc1 -5.46%
CCc1ccc(OCC(=O)N(C)C2CCS(=O)(=O)C2)cc1 (configuration not stated) -5.17%
O=C(COC(=O)CC(c1ccccc1)c1ccccc1)Nc1ccc(F)c(F)c1 -2.72%
C=CCc1ccccc1OCCn1ccnc1 -18.4%
CCOC(=O)c1c(C)nc2sc(C(N)=O)c(N)c2c1-c1ccc(OC)cc1 6.32%
CCN(CC)S(=O)(=O)c1ccc(Cl)c(NC(=O)COc2ccc(OC)cc2)c1 21.4%
On1nnc2ccc3ccccc3c21 -2.17%
COc1cc(C)ccc1OCCCON1C(=O)CCC1=O 1.29%
O=C(COC(=O)c1cc(-c2ccccc2)nc2ccccc12)Nc1ccc2c(c1)OCO2 10.4%
COc1ccc(-c2nn(-c3ccccc3)cc2C(=O)OCC(=O)c2ccc(C)c([N+](=O)[O-])c2)cc1 5.66%
Cc1cc(Nc2ccc(Cl)cc2)n(-c2cccc(Cl)c2)n1 -7.19%
Cc1cc(C)c(NC(=O)C[N+](C)(C)CC(O)COc2cccc3ccccc23)c(C)c1 (configuration not stated) -4.91%
CCOC(=O)c1cc2c(C)n(-c3ccc(N(C)C)cc3)c(C)c2cc(C(=O)OCC)c1=O -6.14%
